Measured values: PMC5892938
The other results are listed elsewhere or left out. At the low end of the ranking, values are background and their order means little.

biological target: GST-SBP-SLBP (stem-loop binding protein) (UniProt Q14493); test: targeted RNA Bind-n-Seq; conditions: RBNS binding buffer: 25 mM Tris pH 7.5, 150 mM KCl, 3 mM MgCl2, 0.1% Tween, 0.5 mg/mL BSA, 1 mM DTT; 27 nM protein, 750 pM RNA pool; temperature not stated; high values mean tight binding;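 further: DESeq read counts versus GST-SBP nonspecific binding control pulldown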

Row | Sequence | binding signal (log2 fold change)
1 | GGUCACGUCUCAAUCAACUCUUAAGAGGGGGGGAAAACCCCUUUGCCCUCCAUGUCAACAGCUCGCAGUCAAG | -0.0374
2 | GGUCACGUCUCAAUCAACUCAUUUUCCAGGGAAAUCCCUGGUAAUCUCAACAGCUCGCAGUCAAG | 0.0667
3 | GGUCACGUCUCAAUCAACUCAUUCCCAGGAGUUUCCUCCUGUUUAGUCAACAGCUCGCAGUCAAG | 0.0958
4 | GGUCACGUCUCAAUCAACUCUAUCCCCAGGGAAAACCCUGGUUUUCUCAACAGCUCGCAGUCAAG | -0.131
5 | GGUCACGUCUCAAUCAACUCAUCCCCAGGAGUUUCCUCCUGUUAAGUCAACAGCUCGCAGUCAAG | 0.253
6 | GGUCACGUCUCAAUCAACUCUUUUCCAGGAGUUUCCUCCUGCUUUCUCAACAGCUCGCAGUCAAG | 0.156
7 | GGUCACGUCUCAAUCAACUCAUUCCCCAGGGAAAACCCUGGCAAUCUCAACAGCUCGCAGUCAAG | 0.166
8 | GGUCACGUCUCAAUCAACUCUUCCUCCAGGGAAACCCCUGGCAUACUCAACAGCUCGCAGUCAAG | -0.258
9 | GGUCACGUCUCAAUCAACUCCCUCGAGGGGGGGAAAACCCCUUUACCCUCAUCUUCAACAGCUCGCAGUCAAG | -0.249
10 | GGUCACGUCUCAAUCAACUCAUCUUCCAGGGAAACCCCUGGCUAAUUCAACAGCUCGCAGUCAAG | 0.05
11 | GGUCACGUCUCAAUCAACUCUUUUUCAGGAGUUUACUCCUGUAAUGUCAACAGCUCGCAGUCAAG | 0.0179
12 | GGUCACGUCUCAAUCAACUCAUCUUCCAGGGAAACCCCUGGUAAAUUCAACAGCUCGCAGUCAAG | -0.128
13 | GGUCACGUCUCAAUCAACUCUUUUUCCAGGGAAAGCCCUGGCUUUCUCAACAGCUCGCAGUCAAG | -0.116
14 | GGUCACGUCUCAAUCAACUCUAUUUCCAGGGAAAACCCUGGCAUUUUCAACAGCUCGCAGUCAAG | -0.176
15 | GGUCACGUCUCAAUCAACUCUUCGCCAGGAGUUUCCUCCUGUAUUUUCAACAGCUCGCAGUCAAG | 0.273
16 | GGUCACGUCUCAAUCAACUCUUUCUCAGGAGUUUACUCCUGCAAUCUCAACAGCUCGCAGUCAAG | 0.143
17 | GGUCACGUCUCAAUCAACUCUUCCCCCAGGGAAAACCCUGGUUAACUCAACAGCUCGCAGUCAAG | -0.0758
18 | GGUCACGUCUCAAUCAACUCACACGAGGGGGGGAAAACCCCUUUACCCUCACUCUCAACAGCUCGCAGUCAAG | 0.143
19 | GGUCACGUCUCAAUCAACUCUUCGUCAGGAGUUUACUCCUGUAAUUUCAACAGCUCGCAGUCAAG | -0.185
20 | GGUCACGUCUCAAUCAACUCUAUCGAGGGGGGGAAAACCCCUUUACCCUCACAUUCAACAGCUCGCAGUCAAG | -0.0793
21 | GGUCACGUCUCAAUCAACUCUUUCCCAGGAGUUUACUCCUGUAAUUUCAACAGCUCGCAGUCAAG | 0.107
22 | GGUCACGUCUCAAUCAACUCUUCUUCCAGGGAAACCCCUGGUUAAUUCAACAGCUCGCAGUCAAG | 0.132
23 | GGUCACGUCUCAAUCAACUCUUCGCCCAGGGAAAUCCCUGGUAUAUUCAACAGCUCGCAGUCAAG | 0.0289
24 | GGUCACGUCUCAAUCAACUCAUCUUCAGGAGUUUACUCCUGUUUAUUCAACAGCUCGCAGUCAAG | -0.0232

Row | Sequence | binding signal (log2 fold change)
25 | GGUCACGUCUCAAUCAACUCAUCUCCAGGAGUUUCCUCCUGCAAUUUCAACAGCUCGCAGUCAAG | -0.0879
26 | GGUCACGUCUCAAUCAACUCUUUUCCCAGGGAAAACCCUGGUUUAUUCAACAGCUCGCAGUCAAG | 0.179
27 | GGUCACGUCUCAAUCAACUCAUUUUCCAGGGAAAACCCUGGUUUUCUCAACAGCUCGCAGUCAAG | -0.0433
28 | GGUCACGUCUCAAUCAACUCAUCUUCCAGGGAAAGCCCUGGUAUAUUCAACAGCUCGCAGUCAAG | 0.154
29 | GGUCACGUCUCAAUCAACUCAUUCGAGGGGGGGAAAACCCCUUUGCCCUCAUAAUCAACAGCUCGCAGUCAAG | -0.455
30 | GGUCACGUCUCAAUCAACUCAUCGCCCAGGGAAAACCCUGGUUUUUUCAACAGCUCGCAGUCAAG | 0.111
31 | GGUCACGUCUCAAUCAACUCUAUCUCAGGAGUUUACUCCUGCAUAUUCAACAGCUCGCAGUCAAG | 0.0675
32 | GGUCACGUCUCAAUCAACUCAAGUCCCAGGGAAAGCCCUGGCAAAUUCAACAGCUCGCAGUCAAG | -0.0212
33 | GGUCACGUCUCAAUCAACUCAUCGUCAGGAGUUUACUCCUGUUAAUUCAACAGCUCGCAGUCAAG | -0.213
34 | GGUCACGUCUCAAUCAACUCUUUUCCCAGGGAAACCCCUGGUUAAUUCAACAGCUCGCAGUCAAG | -0.147
35 | GGUCACGUCUCAAUCAACUCUAUCCCCAGGGAAAGCCCUGGUAUUCUCAACAGCUCGCAGUCAAG | -0.126
36 | GGUCACGUCUCAAUCAACUCAACUUCAGGAGUUUGCUCCUGCAAUUUCAACAGCUCGCAGUCAAG | -0.177
37 | GGUCACGUCUCAAUCAACUCUAGUCCCAGGGAAAACCCUGGCAAUUUCAACAGCUCGCAGUCAAG | 0.266
38 | GGUCACGUCUCAAUCAACUCAGUUUCAGGAGUUUACUCCUGCAUUCUCAACAGCUCGCAGUCAAG | -0.139
39 | GGUCACGUCUCAAUCAACUCUUCCUCCAGGGAAAACCCUGGCAUAUUCAACAGCUCGCAGUCAAG | -0.0616
40 | GGUCACGUCUCAAUCAACUCUAUCCCCAGGGAAAACCCUGGCAAACUCAACAGCUCGCAGUCAAG | -0.14
41 | GGUCACGUCUCAAUCAACUCCCUAGAGGGGGGGAAAACCCCUUUGCCCUCGAAUUCAACAGCUCGCAGUCAAG | 0.182
42 | GGUCACGUCUCAAUCAACUCUAUUCCAGGAGUUUACUCCUGCUUACUCAACAGCUCGCAGUCAAG | -0.0547
43 | GGUCACGUCUCAAUCAACUCCCAAAGGUUUUUCUUAGAACCACCCAUCAACAGCUCGCAGUCAAG | 0.299
44 | GGUCACGUCUCAAUCAACUCAGUCUCCAGGGAAAGCCCUGGCUAUCUCAACAGCUCGCAGUCAAG | -0.286
45 | GGUCACGUCUCAAUCAACUCAUUUGCAGGAGUUUACUCCUGGUAUUUCAACAGCUCGCAGUCAAG | 0.042
46 | GGUCACGUCUCAAUCAACUCUUUUCCCAGGGAAAGCCCUGGCAAUGUCAACAGCUCGCAGUCAAG | 0.2
47 | GGUCACGUCUCAAUCAACUCCUCGGAGGGGGGGAAAACCCCUUUACCCUCACAAUCAACAGCUCGCAGUCAAG | -0.433
48 | GGUCACGUCUCAAUCAACUCUACAGAGGGGGGGAAAACCCCUUUUCCCUCAACAUCAACAGCUCGCAGUCAAG | 0.191
